Data taken from publication PMC4336329 (PLoS ONE, 2015).
Among all 310,000 compounds or so, about 14,000 (4.5%) showed an effect of 50% or more. The effect is printed as a negative number. Some of the results follow.

What follows are compounds tested against human ether-à-go-go-related gene (hERG) potassium channel (human, UniProt Q12809) (assay: primary screen, population patch clamp on CHO cells stably expressing hERG).
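Note: peak tail current of the secondary pulse compared with the same well before compound.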

human ether-à-go-go-related gene (hERG) potassium channel, sequence (Q12809 whole entry, looked up): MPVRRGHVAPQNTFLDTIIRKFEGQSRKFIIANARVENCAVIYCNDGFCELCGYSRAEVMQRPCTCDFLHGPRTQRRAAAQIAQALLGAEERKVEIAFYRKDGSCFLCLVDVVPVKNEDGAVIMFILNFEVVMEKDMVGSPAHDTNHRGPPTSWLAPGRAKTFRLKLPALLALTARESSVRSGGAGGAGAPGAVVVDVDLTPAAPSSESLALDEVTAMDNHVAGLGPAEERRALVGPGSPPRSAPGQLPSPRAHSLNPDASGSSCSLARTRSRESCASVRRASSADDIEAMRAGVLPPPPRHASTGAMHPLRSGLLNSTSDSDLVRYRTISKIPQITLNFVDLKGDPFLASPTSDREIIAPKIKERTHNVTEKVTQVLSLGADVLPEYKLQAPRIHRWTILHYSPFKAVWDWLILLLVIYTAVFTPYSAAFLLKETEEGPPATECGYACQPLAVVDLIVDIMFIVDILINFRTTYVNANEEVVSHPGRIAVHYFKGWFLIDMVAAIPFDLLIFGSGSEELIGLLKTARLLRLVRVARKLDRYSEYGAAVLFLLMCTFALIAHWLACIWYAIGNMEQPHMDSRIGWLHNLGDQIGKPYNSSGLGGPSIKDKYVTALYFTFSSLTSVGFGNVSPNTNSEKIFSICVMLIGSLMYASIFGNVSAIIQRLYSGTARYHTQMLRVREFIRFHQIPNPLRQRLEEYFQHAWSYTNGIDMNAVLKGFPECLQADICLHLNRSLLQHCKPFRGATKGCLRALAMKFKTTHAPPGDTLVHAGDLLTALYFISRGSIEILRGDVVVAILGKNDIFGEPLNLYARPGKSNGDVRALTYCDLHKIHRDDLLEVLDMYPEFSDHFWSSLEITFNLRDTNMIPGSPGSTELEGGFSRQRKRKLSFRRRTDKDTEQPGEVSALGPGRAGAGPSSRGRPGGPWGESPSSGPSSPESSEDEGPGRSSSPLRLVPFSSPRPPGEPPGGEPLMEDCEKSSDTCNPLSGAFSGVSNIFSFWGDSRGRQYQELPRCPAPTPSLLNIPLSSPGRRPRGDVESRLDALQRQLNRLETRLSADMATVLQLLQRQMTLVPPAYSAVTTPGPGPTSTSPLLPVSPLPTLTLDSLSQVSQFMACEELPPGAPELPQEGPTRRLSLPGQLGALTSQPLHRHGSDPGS

Row | Structure (SMILES) | hERG current change (%, negative = inhibition) at 10uM [%]
1 | COc1ccc(NC(=O)C2=C(C)NC(=O)NC2c2cccc(OC)c2OC)c(OC)c1 (stereo not drawn) | 22.8
2 | O=C(NCc1ccco1)c1ccc2c(c1)N(Cc1ccccc1)CCS2 | -10.3
3 | COc1ccccc1C(=O)NCC(=O)OC(C)C(=O)NC(=O)NC1CCCCC1 (stereo not drawn) | 4.94
4 | NS(=O)(=O)c1ccc(CNC(=O)c2cc(-c3ccccc3)nc3ccccc23)cc1 | 4.43
5 | COc1ccc(C2=CC3=CC(=O)C(C)(O)C(=O)C3=CO2)cc1 (stereo not drawn) | 8.37
6 | CC(=O)Nc1ccc(C(=O)CN2CCN(c3ccccc3)CC2)cc1 | 1.39
7 | COc1ccc(NS(=O)(=O)c2ccc3c(c2)CCCN3C(C)=O)cc1 | -0.512
8 | Cc1ccc(S(=O)(=O)N2CCN(C(=O)COC(=O)/C=C/c3ccccc3[N+](=O)[O-])CC2)c(C)c1 | 4.26
9 | Cc1ccsc1C(=O)OCc1nc2ccsc2c(=O)[nH]1 | -2.66
10 | Cc1cc(C)c(NS(=O)(=O)c2ccc(NC(=O)c3cccs3)cc2)c(C)c1 | 17.4
11 | CCCC(c1nnnn1Cc1cccs1)N1CCN(c2nc3ccccc3s2)CC1 (stereo not drawn) | -22.4
12 | Cc1cc(OC(C)C(=O)Nc2ccc(S(=O)(=O)Nc3onc(C)c3C)cc2)cc(C)c1Cl (stereo not drawn) | -2.69
13 | C=CCn1c(NCc2ccc(OC)cc2)nc2ccccc21 | -17.2
14 | COc1ccc(-n2c(SCC#N)nnc2-c2ccc(NS(=O)(=O)c3ccc(C)cc3)cc2)cc1 | -30.2
15 | Cc1nn(-c2ccc(C(=O)NCC(c3ccco3)N3CCCC3)cc2)c(C)c1Cl (stereo not drawn) | -45.7
16 | COc1ccc(Cn2c(=O)cc(C)[nH]c2=S)cc1 | 4.74
17 | CC(=NCc1ccc2c(c1)OCO2)c1c(O)[nH]c(=O)[nH]c1=O | -4.41
18 | Cc1ccc(CC(=O)Nc2cc(C)on2)cc1 | -3.24
19 | CCOc1ccc(-n2c(O)c(C=Nc3ccc(N4CCOCC4)cc3)c(=O)[nH]c2=O)cc1 | -16.2
20 | COCCCNC(=S)N1CCC(C(=O)c2ccc(Cl)cc2)CC1 | -6.91
21 | CCOC(=O)N1CCC(NC(=O)C2CCN(C(=O)c3cc4oc(C)cc4n3Cc3c(F)cccc3Cl)CC2)CC1 | -20.3
22 | COCCCNS(=O)(=O)c1ccc2c3c(cccc13)C(=O)S2 | -45.8

Row | Structure (SMILES) | hERG current change (%, negative = inhibition) at 10uM [%]
23 | CN1C(=O)[C@H]2[C@@H](c3ccc(F)cc3)N3C(=O)c4ccccc4NC(=O)[C@@]3(C)[C@H]2C1=O | -39.1
24 | Cc1ccc(SCC(=O)Nc2ccccc2C(=O)N2CCOCC2)cc1 | -10.9
25 | O=C(Nc1cccc(Cl)c1)c1ccc(F)c(S(=O)(=O)N2CCN(c3ccccn3)CC2)c1 | -11.2
26 | Cc1sc2nc(SCC(=O)NCCCO)n(-c3ccccc3)c(=O)c2c1C | 12
27 | CC(NC(=O)CN(C)S(=O)(=O)c1ccc2c(c1)c(=O)n(C)c(=O)n2C)c1ccccc1 (stereo not drawn) | -0.312
28 | COc1ccccc1NC(=O)CSc1nnc(C)n1CCc1ccccc1 | -14.3
29 | Cc1ccccc1N(CC(=O)NC(C)(C)C)C(=O)CS(=O)CC(=O)Nc1ccc2c(c1)OCO2 (stereo not drawn) | 6.63
30 | CCOC(=O)Nc1cccnc1Sc1ccc(Cl)cc1 | -32
31 | O=[N+]([O-])c1cnn(-c2nc(-c3cccs3)cc(C(F)(F)F)n2)c1 | -22.5
32 | Cc1c(NC(=O)c2cccc(NC(=O)c3ccco3)c2)cccc1C(=O)O | 7.41
33 | O=C(CCN1C(=O)/C(=C/c2ccccc2)SC1=S)Nc1ccccn1 | 12.9
34 | Cc1ccc(N2CC(C(=O)NCc3cccnc3)CC2=O)cc1 (stereo not drawn) | -11.9
35 | Cc1cccc(C(=O)NNC(=S)NC(=O)c2cccs2)c1 | 20.6
36 | Cc1cc(Oc2ccccc2)nc(N)n1 | -0.0794
37 | COc1cccc(C(CNC(=O)C2CCN(C(=O)Nc3ccccc3)CC2)N(C)C)c1 (stereo not drawn) | -6.05
38 | Cc1ccc(NC(=O)N2CCCc3ccccc32)cc1 | -6.25
39 | O=C1c2ccc([N+](=O)[O-])cc2S(=O)(=O)N1Cc1ccccc1 | 1.3
40 | Cc1ccc(Sc2nc([N+](=O)[O-])nn2C)cc1 | 0.903
41 | COc1ccc(Nc2nc(C(=O)N3CCc4cc(OC)c(OC)cc4C3)cs2)cc1 | -13.7
42 | CC(C)=Cc1c(O)nc2ccccn2c1=O | 26.6
43 | CCN1C(N(C)C)=NC[C@@H]1Cc1ccccc1 | -1.57
44 | NS(=O)(=O)c1cccc(NS(=O)(=O)c2ccc(/C=C/C(=O)OCC(=O)c3ccc(Br)cc3)cc2)c1 | 16.9

Row | Structure (SMILES) | hERG current change (%, negative = inhibition) at 10uM [%]
45 | COc1ccc(CNc2cccc3[nH]c(C(F)(F)F)nc23)cc1.Cl | -13.3
46 | C/C(=N\OC(=O)c1ccc(F)cc1)c1nccs1 | 3.53
47 | CCN1CCN(C(=O)C2CCCN(S(=O)(=O)c3ccc(OC)c(OC)c3)C2)CC1 (stereo not drawn) | 13.9
48 | O=C(Nc1ccc(CN2CCCCC2)cc1)Nc1ccc(Br)cc1Cl | 0.205
49 | COc1ccc(/C=C/C(=O)NC(=S)NNC(=O)c2ccco2)cc1 | 13.8
50 | Cc1ccc2nc(N/N=C\c3ccc([N+](=O)[O-])o3)nc(-c3ccccc3)c2c1 | -72.6
51 | CC(NC(=O)Nc1ccccn1)N1C(=O)C2C3C=CC(C3)C2C1=O (stereo not drawn) | 6.12
52 | O=C(N/N=C/c1ccc2cccnc2c1)c1ccco1 | 7.35
53 | COC(=O)c1ccc(NC(=O)CN2CCN(CC#N)CC2)cc1.O=C(O)C(=O)O | 3.24
54 | Cc1ccc(C(=O)NCCc2cccc(Cl)c2)cc1[N+](=O)[O-] | -29.7
55 | CC(C)CC(COCc1ccc(Cl)cc1)N1CCN(C(=O)c2cccc(C(F)(F)F)c2)CCC1=O (stereo not drawn) | -38.1
56 | NC(=O)CSc1nc(-c2ccccc2)c(-c2ccccc2)o1 | -1.06
57 | Cc1nc(Nc2ccccc2O)c2oc3ccccc3c2n1 | 13.3
58 | O=C1c2ccc(Oc3ccc([N+](=O)[O-])cc3)cc2C(=O)N1c1ccncc1 | 5.31
59 | O=C(/C=C/c1cccs1)N1CCOCC1 | 4.89
60 | Cc1cc(Nc2cccc(F)c2)n2c(n1)nc1ccccc12 | 3.44
61 | CCSc1ccccc1C(=O)n1nnc2ccccc21 | 5.18
62 | Cc1noc2ncnc(Oc3ccc(C(C)(C)C)cc3)c12 | 13.7
63 | O=C(Nc1ccccc1Cl)Oc1ccc(Cl)cc1Cl | 12.8
64 | O=c1c2ccccc2nc(-c2ccccc2)n1Cc1ccc(Cl)cc1 | -15.7
65 | CN(C)CC/C=C1/c2cc(F)ccc2Sc2ccc(Cl)cc21.Cl | -34.5
66 | Cc1ccc(-n2c(SCC(=O)N/N=C/c3ccccc3OCC(=O)O)nc3ccccc3c2=O)cc1 | 13.6

Row | Structure (SMILES) | hERG current change (%, negative = inhibition) at 10uM [%]
67 | COc1ccc(NC(=O)c2cc(-c3ccccc3Cl)on2)cc1OC | 4.5
68 | c1ccc2[nH]c(-c3cnco3)cc2c1 | -1.31
69 | Cc1c(NC(=O)c2cccc(NC(=O)Cc3ccc(F)cc3)c2)c(=O)n(-c2ccccc2)n1C | 4.54
70 | CN(C)C(CNC(=O)c1coc2ccccc2c1=O)c1ccccc1 (stereo not drawn) | 4.85
71 | CC(C)CC(=O)NCCc1ccncc1 | 4.26
72 | CC(NC(=O)c1ccccc1NC(=O)c1ccco1)c1ccccc1 (stereo not drawn) | 0.708
73 | Cc1ccc(C2c3sc(=O)[nH]c3SC3C4CC(C5C(=O)N(C(C)C(=O)O)C(=O)C45)C23)cc1 (stereo not drawn) | 12.3
74 | CCOC(=O)c1c(NC(=O)c2ccco2)sc(C(=O)N2CCCC2)c1C | -1.58
75 | CCC(C(=O)NCc1ccc(C)o1)n1nc(C)c2c(C)n(-c3ccccc3)nc2c1=O (stereo not drawn) | 1.61
76 | Cc1onc(-c2ccccc2)c1C(=O)NCc1ccc(F)cc1 | -1.74
77 | Cl.N=c1sccn1CC(=O)Nc1cc(Cl)ccc1Oc1ccccc1 | -75.2
78 | Cc1cc(Cl)ccc1C1=CC(=O)C[C@H](c2ccc(F)cc2)C1 | 15.7
79 | CCOc1ncccc1C(=O)OCc1c(F)cccc1Cl | 9.23
80 | CN1CCN(c2nc(-c3ccccc3)nc(-c3ccccc3)c2C#N)CC1 | 1.72
81 | Cl.NCCc1ccc(S(=O)(=O)F)cc1 | -6.19
82 | O=C(O)CCc1ccc(S(=O)(=O)Nc2ccccc2C(=O)NCCc2ccccc2)cc1 | 14.8
83 | Cc1cc(CN(C)C(=O)CCc2nnc(Cc3cccc(C(F)(F)F)c3)o2)on1 | 4.52
84 | O=S(=O)(c1ccc(-c2ccno2)s1)N1CCCCC1 | 0.962
85 | O=C1Cc2cc(S(=O)(=O)Nc3ccccc3Cl)cc3c2N1CCC3 | 6.73
86 | Cc1cc(NC(=O)c2ccc3c(c2)C(=O)N(Cc2ccccc2)C3=O)no1 | 15.3
87 | O=C(Nc1ccc(F)cc1F)N1CCN(c2ncccn2)CC1 | -8.77
